Results taken from patent US20190169308A1 (ALLIGATOR BIOSCIENCE, published 2019).

T1: 5T4-Fc (human, UniProt Q13641 32-355, limits assumed)
T1 construct: obtained from Peter L. Stern, University of Manchester; also called h5T4-Fc; recombinant 5T4
T1 sequence (looked up): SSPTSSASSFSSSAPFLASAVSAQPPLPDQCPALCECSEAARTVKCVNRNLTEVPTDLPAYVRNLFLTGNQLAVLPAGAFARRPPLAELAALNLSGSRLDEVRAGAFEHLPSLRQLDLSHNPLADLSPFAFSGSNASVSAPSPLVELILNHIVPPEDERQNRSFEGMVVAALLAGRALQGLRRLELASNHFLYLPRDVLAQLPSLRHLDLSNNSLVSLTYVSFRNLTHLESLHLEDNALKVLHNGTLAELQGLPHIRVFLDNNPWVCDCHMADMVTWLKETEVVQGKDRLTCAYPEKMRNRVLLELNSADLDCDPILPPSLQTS


Target: T1, 5T4-Fc
Assay: dual ELISA: coated 5T4-Fc, detection with CD137-bio
Experimental: Bispecific binding to both targets, CD137 and 5T4, was evaluated using a standard ELISA protocol. Plates (#655074, Greiner Bio-One GmbH, Germany) were pre-coated with 0.5 μg/ml 5T4-Fc (obtained from Professor Peter Stern, University of Manchester) overnight. CD137-5T4 bsAb were diluted from 8 to 2×10⁻³ μg/ml in 1:4 dilutions and added in duplicates of 50 μl to each well. CD137-bio (Ancell #502-030) was used as detection antibody at 0.5 μg/ml and the binding was detected with Streptavidin-HRP (Pierce #21126). The ELISA was developed with SuperSignal ELISA PICO Chemiluminescent substrate (Thermo Scientific Pierce, Rockford, Ill. USA) during 2-10 minutes and read in an automated microplate based multi-detection reader (FLUOstar OPTIMA, Netherlands).

Binder	EC50 [nM]
1202-1206 (bispecific antibody, Morrison format IgG-scFv) heavy: EVQLLESGGGLVQPGGSLRLSCAASGFTFYGSSMSWVRQAPGKGLEWVSSIYYGSSGTYYADSVKGRFTISRDNSKNTLYLQMNSLRAEDTAVYYCARSYYGYFDYWGQGTLVTVSS[no letters for human IgG1 constant region]GGGGSGGGGSEVQLLESGGGLVQPGGSLRLSCAASGFTFSGSSMSWVRQAPGKGLEWVSSIYYSGSGTYYADSVKGRFTISRDNSKNTLYLQMNSLRAEDTAVYYCARYGRNVHPYNLDYWGQGTLVTVSSGGGGSGGGGSGGGGSDIQMTQSPSSLSASVGDRVTITCRASQSISSYLNWYQQKPGKAPKLLIYAASSLQSGVPSRFSGSGSGTDFTLTISSLQPEDFATYYCQQGYYYLPTFGQGTKLEIK light: DIQMTQSPSSLSASVGDRVTITCRASQSISSYLNWYQQKPGKAPKLLIYAASSLQSGVPSRFSGSGSGTDFTLTISSLQPEDFATYYCQQYYTVVPFTFGQGTKLEIKRTVAAPSVFIFPPSDEQLKSGTASVVCLLNNFYPREAKVQWKVDNALQSGNSQESVTEQDSKDSTYSLSSTLTLSKADYEKHKVYACEVTHQGLSSPVTKSFNRGEC	0.61
1204-1206 (bispecific antibody, Morrison format IgG-scFv) heavy: EVQLLESGGGLVQPGGSLRLSCAASGFTFSSYYMGWVRQAPGKGLEWVSGIGSYYGYTGYADSVKGRFTISRDNSKNTLYLQMNSLRAEDTAVYYCARAYYDYNYYYAYFDYWGQGTLVTVSS[no letters for human IgG1 constant region]GGGGSGGGGSEVQLLESGGGLVQPGGSLRLSCAASGFTFSGSSMSWVRQAPGKGLEWVSSIYYSGSGTYYADSVKGRFTISRDNSKNTLYLQMNSLRAEDTAVYYCARYGRNVHPYNLDYWGQGTLVTVSSGGGGSGGGGSGGGGSDIQMTQSPSSLSASVGDRVTITCRASQSISSYLNWYQQKPGKAPKLLIYAASSLQSGVPSRFSGSGSGTDFTLTISSLQPEDFATYYCQQGYYYLPTFGQGTKLEIK light: DIQMTQSPSSLSASVGDRVTITCRASQSISSYLNWYQQKPGKAPKLLIYAASSLQSGVPSRFSGSGSGTDFTLTISSLQPEDFATYYCQQSVPHYPFTFGQGTKLEIKRTVAAPSVFIFPPSDEQLKSGTASVVCLLNNFYPREAKVQWKVDNALQSGNSQESVTEQDSKDSTYSLSSTLTLSKADYEKHKVYACEVTHQGLSSPVTKSFNRGEC	0.54
1206-1204 (bispecific antibody, Morrison format IgG-scFv) heavy: EVQLLESGGGLVQPGGSLRLSCAASGFTFSGSSMSWVRQAPGKGLEWVSSIYYSGSGTYYADSVKGRFTISRDNSKNTLYLQMNSLRAEDTAVYYCARYGRNVHPYNLDYWGQGTLVTVSS[no letters for human IgG1 constant region]GGGGSGGGGSEVQLLESGGGLVQPGGSLRLSCAASGFTFSSYYMGWVRQAPGKGLEWVSGIGSYYGYTGYADSVKGRFTISRDNSKNTLYLQMNSLRAEDTAVYYCARAYYDYNYYYAYFDYWGQGTLVTVSSGGGGSGGGGSGGGGSDIQMTQSPSSLSASVGDRVTITCRASQSISSYLNWYQQKPGKAPKLLIYAASSLQSGVPSRFSGSGSGTDFTLTISSLQPEDFATYYCQQSVPHYPFTFGQGTKLEIK light: DIQMTQSPSSLSASVGDRVTITCRASQSISSYLNWYQQKPGKAPKLLIYAASSLQSGVPSRFSGSGSGTDFTLTISSLQPEDFATYYCQQGYYYLPTFGQGTKLEIKRTVAAPSVFIFPPSDEQLKSGTASVVCLLNNFYPREAKVQWKVDNALQSGNSQESVTEQDSKDSTYSLSSTLTLSKADYEKHKVYACEVTHQGLSSPVTKSFNRGEC	0.66
1200-1210 (bispecific antibody, Morrison format IgG-scFv) heavy: EVQLLESGGGLVQPGGSLRLSCAASGFTFSSYAMSWVRQAPGKGLEWVSGISGGGGGTYYADSVKGRFTISRDNSKNTLYLQMNSLRAEDTAVYYCARDVAYFDYWGQGTLVTVSS[no letters for human IgG1 constant region]GGGGSGGGGS[no letters for about 100 residues]YYGGYYSAWMDYWGQGTLVTVSSGGGGSGGGGSGGGGSDIQMTQSPSSLSASVGDRVTITCRASQSISSYLNWYQQKPGKAPKLLIYAASSLQSGVPSRFSGSGSGTDFTLTISSLQPEDFATYYCQQTYGYLHTFGQGTKLEIK light: DIQMTQSPSSLSASVGDRVTITCRASQSISSYLNWYQQKPGKAPKLLIYAASSLQSGVPSRFSGSGSGTDFTLTISSLQPEDFATYYCQQYYIPHTFGQGTKLEIKRTVAAPSVFIFPPSDEQLKSGTASVVCLLNNFYPREAKVQWKVDNALQSGNSQESVTEQDSKDSTYSLSSTLTLSKADYEKHKVYACEVTHQGLSSPVTKSFNRGEC	3.73
1202-1210 (bispecific antibody, Morrison format IgG-scFv) heavy: EVQLLESGGGLVQPGGSLRLSCAASGFTFYGSSMSWVRQAPGKGLEWVSSIYYGSSGTYYADSVKGRFTISRDNSKNTLYLQMNSLRAEDTAVYYCARSYYGYFDYWGQGTLVTVSS[no letters for human IgG1 constant region]GGGGSGGGGS[no letters for about 100 residues]YYGGYYSAWMDYWGQGTLVTVSSGGGGSGGGGSGGGGSDIQMTQSPSSLSASVGDRVTITCRASQSISSYLNWYQQKPGKAPKLLIYAASSLQSGVPSRFSGSGSGTDFTLTISSLQPEDFATYYCQQTYGYLHTFGQGTKLEIK light: DIQMTQSPSSLSASVGDRVTITCRASQSISSYLNWYQQKPGKAPKLLIYAASSLQSGVPSRFSGSGSGTDFTLTISSLQPEDFATYYCQQYYTVVPFTFGQGTKLEIKRTVAAPSVFIFPPSDEQLKSGTASVVCLLNNFYPREAKVQWKVDNALQSGNSQESVTEQDSKDSTYSLSSTLTLSKADYEKHKVYACEVTHQGLSSPVTKSFNRGEC	1.2

Stronger by EC50, values ahead:

EC50 [nM]	Binder
0.28	1206-1202 (bispecific antibody, Morrison format IgG-scFv) heavy: EVQLLESGGGLVQPGGSLRLSCAASGFTFSGSSMSWVRQAPGKGLEWVSSIYYSGSGTYYADSVKGRFTISRDNSKNTLYLQMNSLRAEDTAVYYCARYGRNVHPYNLDYWGQGTLVTVSS[no letters for human IgG1 constant region]GGGGSGGGGSEVQLLESGGGLVQPGGSLRLSCAASGFTFYGSSMSWVRQAPGKGLEWVSSIYYGSSGTYYADSVKGRFTISRDNSKNTLYLQMNSLRAEDTAVYYCARSYYGYFDYWGQGTLVTVSSGGGGSGGGGSGGGGSDIQMTQSPSSLSASVGDRVTITCRASQSISSYLNWYQQKPGKAPKLLIYAASSLQSGVPSRFSGSGSGTDFTLTISSLQPEDFATYYCQQYYTVVPFTFGQGTKLEIK light: DIQMTQSPSSLSASVGDRVTITCRASQSISSYLNWYQQKPGKAPKLLIYAASSLQSGVPSRFSGSGSGTDFTLTISSLQPEDFATYYCQQGYYYLPTFGQGTKLEIKRTVAAPSVFIFPPSDEQLKSGTASVVCLLNNFYPREAKVQWKVDNALQSGNSQESVTEQDSKDSTYSLSSTLTLSKADYEKHKVYACEVTHQGLSSPVTKSFNRGEC
0.19	1214-1210 (bispecific antibody, Morrison format IgG-scFv) heavy: EVQLLESGGGLVQPGGSLRLSCAASGFTFSSYAMSWVRQAPGKGLEWVSSIGSGGGYTGYADSVKGRFTISRDNSKNTLYLQMNSLRAEDTAVYYCARVGHPFDYWGQGTLVTVSS[no letters for human IgG1 constant region]GGGGSGGGGS[no letters for about 100 residues]YYGGYYSAWMDYWGQGTLVTVSSGGGGSGGGGSGGGGSDIQMTQSPSSLSASVGDRVTITCRASQSISSYLNWYQQKPGKAPKLLIYAASSLQSGVPSRFSGSGSGTDFTLTISSLQPEDFATYYCQQTYGYLHTFGQGTKLEIK light: DIQMTQSPSSLSASVGDRVTITCRASQSISSYLNWYQQKPGKAPKLLIYAASSLQSGVPSRFSGSGSGTDFTLTISSLQPEDFATYYCQQDAYPHTFGQGTKLEIKRTVAAPSVFIFPPSDEQLKSGTASVVCLLNNFYPREAKVQWKVDNALQSGNSQESVTEQDSKDSTYSLSSTLTLSKADYEKHKVYACEVTHQGLSSPVTKSFNRGEC
